In US20260250398A1:

Target: FZD1/2/4/5/7/8
Assay: cell-based or functional assay

| TOPFLASH % Wnt Maxima | TOPFLASH EC50 | Binder |
| --- | --- | --- |
| 33 % Wnt Maxima | 0.9 nM | CM0042 (FZD Diabody-Fc-LRP Diabody; paratopes 5019; 2539) (bispecific antibody) MNLLLILTFVAAAVAEFEVQLVESGGGLVQPGGSLRLSCAASGFNIGSSSIHWVRQAPGKGLEWVASIYSAFASTSYADSVKGRFTISADTSKNTAYLQMNSLRAEDTAVYYCARYHFPFGFALDYWGQGTLVTVSSGGGGSDIQMTQSPSSLSASVGDRVTITCRASQSVSSAVAWYQQKPGKAPKLLIYSASSLYSGVPSRFSGSRSGTDFTLTISSLQPEDFATYYCQQGVYLFTFGQGTKVEIKLEDKTHTKV[sequence of human IgG1 Fc with C220S (EU numbers) not given]SGSETPGTSESATPESGGGEVQLVESGGGLVQPGGSLRLSCAASGFNISYSSIHWVRQAPGKGLEWVAYISSYYGYTYYADSVKGRFTISADTSKNTAYLQMNSLRAEDTAVYYCARAHYFPWAGAMDYWGQGTLVTVSSGGGGSDIQMTQSPSSLSASVGDRVTITCRASQSVSSAVAWYQQKPGKAPKLLIYSASSLYSGVPSRFSGSRSGTDFTLTISSLQPEDFATYYCQQYSWGPFTFGQGTKVEIK |
| 14 % Wnt Maxima | 0.1 nM | CM0299 (FZD IgG-LRP Diabody; paratopes 5016; 2539) (bispecific antibody) heavy: EVQLVESGGGLVQPGGSLRLSCAASGFNIHSSSIHWVRQAPGKGLEWVAATYSSFGSITYADSVKGRFTISADTSKNTAYLQMNSLRAEDTAVYYCARYHHPFGYALDYWGQGTLVTVSS[sequence of human IgG1 constant region not given]SGSETPGTSESATPESGGGEVQLVESGGGLVQPGGSLRLSCAASGFNISYSSIHWVRQAPGKGLEWVAYISSYYGYTYYADSVKGRFTISADTSKNTAYLQMNSLRAEDTAVYYCARAHYFPWAGAMDYWGQGTLVTVSSGGGGSDIQMTQSPSSLSASVGDRVTITCRASQSVSSAVAWYQQKPGKAPKLLIYSASSLYSGVPSRFSGSRSGTDFTLTISSLQPEDFATYYCQQYSWGPFTFGQGTKVEIK light: DIQMTQSPSSLSASVGDRVTITCRASQSVSSAVAWYQQKPGKAPKLLIYSASSLYSGVPSRFSGSRSGTDFTLTISSLQPEDFATYYCQQGVYLFTFGQGTKVEIKRTVAAPSVFIFPPSDEQLKSGTASVVCLLNNFYPREAKVQWKVDNALQSGNSQESVTEQDSKDSTYSLSSTLTLSKADYEKHKVYACEVTHQGLSSPVTKSFNRGEC |

More lines, now with the values behind:

| Binder | TOPFLASH % Wnt Maxima | TOPFLASH EC50 |
| --- | --- | --- |
| CM0301 (FZD IgG-LRP scFv; paratopes 5016; 2542) (bispecific antibody) heavy: EVQLVESGGGLVQPGGSLRLSCAASGFNIHSSSIHWVRQAPGKGLEWVAATYSSFGSITYADSVKGRFTISADTSKNTAYLQMNSLRAEDTAVYYCARYHHPFGYALDYWGQGTLVTVSS[sequence of human IgG1 constant region not given]SGSETPGTSESATPESGGGDIQMTQSPSSLSASVGDRVTITCRASQSVSSAVAWYQQKPGKAPKLLIYSASSLYSGVPSRFSGSRSGTDFTLTISSLQPEDFATYYCQQYYWPITFGQGTKVEIKGTTAASGSSGGSSSGAEVQLVESGGGLVQPGGSLRLSCAASGFNISSYYIHWVRQAPGKGLEWVASIYSSYGYTSYADSVKGRFTISADTSKNTAYLQMNSLRAEDTAVYYCARTVRGSKKPYFSGWAMDYWGQGTLVTVSS light: DIQMTQSPSSLSASVGDRVTITCRASQSVSSAVAWYQQKPGKAPKLLIYSASSLYSGVPSRFSGSRSGTDFTLTISSLQPEDFATYYCQQGVYLFTFGQGTKVEIKRTVAAPSVFIFPPSDEQLKSGTASVVCLLNNFYPREAKVQWKVDNALQSGNSQESVTEQDSKDSTYSLSSTLTLSKADYEKHKVYACEVTHQGLSSPVTKSFNRGEC | 1 % Wnt Maxima | 0.2 nM |
| CM0300 (FZD IgG-LRP scFv; paratopes 5016; 2539) (bispecific antibody) heavy: EVQLVESGGGLVQPGGSLRLSCAASGFNIHSSSIHWVRQAPGKGLEWVAATYSSFGSITYADSVKGRFTISADTSKNTAYLQMNSLRAEDTAVYYCARYHHPFGYALDYWGQGTLVTVSS[sequence of human IgG1 constant region not given]SGSETPGTSESATPESGGGDIQMTQSPSSLSASVGDRVTITCRASQSVSSAVAWYQQKPGKAPKLLIYSASSLYSGVPSRFSGSRSGTDFTLTISSLQPEDFATYYCQQYSWGPFTFGQGTKVEIKGTTAASGSSGGSSSGAEVQLVESGGGLVQPGGSLRLSCAASGFNISYSSIHWVRQAPGKGLEWVAYISSYYGYTYYADSVKGRFTISADTSKNTAYLQMNSLRAEDTAVYYCARAHYFPWAGAMDYWGQGTLVTVSS light: DIQMTQSPSSLSASVGDRVTITCRASQSVSSAVAWYQQKPGKAPKLLIYSASSLYSGVPSRFSGSRSGTDFTLTISSLQPEDFATYYCQQGVYLFTFGQGTKVEIKRTVAAPSVFIFPPSDEQLKSGTASVVCLLNNFYPREAKVQWKVDNALQSGNSQESVTEQDSKDSTYSLSSTLTLSKADYEKHKVYACEVTHQGLSSPVTKSFNRGEC | 5 % Wnt Maxima | 0.3 nM |
